Source: PubChem BioAssay AID1508624 (National Center for Advancing Translational Sciences (NCATS), 2021)
Among all 48,000 compounds or so, about 120 (0.25%) were called active. Not shown: some 4% with an inconclusive outcome. Calls come from the whole dose curve; as a rule, active = well fitted activation curve with a large enough effect; inconclusive = small, poorly fitted or top-dose-only effect, or another doubt; inactive = no such curve, though single readings can be large or run the other way. Some of the results follow.

Assay: Primary qHTS for Identification of Small Molecule Activators of Huntingtin-Antisense Promoter Activity; note: nearly all actives have a fitted effect of over 55% in size
Settings: HEK293 HTT-AS promoter firefly luciferase reporter, 24 h; series mostly up to 57.5 µM; activity change, positive = activation: at the top concentration
Method in brief: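 HEK293 cells carrying firefly luciferase reporters were seeded at 2,500 per well in Opti-MEM and cultured for 24 h. They were then treated with compounds at up to 57.5 uM final for 24 h at 37 degrees C before Dual-Glo luminescence readout.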

Activity change, positive = activation, inactive:
O=c1[nH]c(C2CCCN(S(=O)(=O)c3ccccc3Cl)C2)nc2c1nnn2Cc1ccc(OC(F)(F)F)cc1 (stereo not given) 0.31%
Cc1ccc(CCNC(=O)C2CC(=O)N(CCc3ccccc3)C2)cc1 (stereo not given) 1.59%
Cc1ccc(C(=O)Nc2cccc(C(F)(F)F)c2)cc1Nc1nc(-c2cccnc2)nc2c1cnn2C -24.4%
CCc1nn(CCCC(=O)N2CCN(c3ccc(OC)cc3)CC2)c(=O)c2cc3occc3n12 -23%
COc1ccc(CCNC(=O)c2ccc3c(c2)c(C)c(C)n3Cc2ccccc2)c(OC)c1OC -26.5%
CC1(C)O[C@@H]2C[C@@H]3[C@H]4C[C@@H](F)C5=CC(=O)C=C[C@]5(C)[C@@]4(F)[C@@H](O)C[C@]3(C)[C@]2(C(=O)CO)O1 -13.2%
CCOc1ccc(NC(=O)CN2CCN(C3CCCCC3)C(=O)C2=O)cc1 -17.1%
Cc1ccc(-c2cc(-c3coc4ccccc4c3=O)c3c(n2)-c2ccccc2OC3)cc1 1.62%
Cc1c(-c2cccc(NC(=O)Nc3ccccc3)c2)nc2ncccn12 3.22%
Cc1ccc(S(=O)(=O)N2CCc3cc(C(=O)NCCc4ccccc4)ccc32)cc1 -7.3%
Cc1cc(-c2ccc(S(=O)(=O)NCc3ccccc3Cl)s2)on1 -37.6%
CCS(=O)(=O)N1CCC2(CC1)OC(=O)C(C)=C2C(=O)NCc1ccccc1C -3.6%
COc1cccc(Cn2c(=O)cc(C)c3c(C)nn(-c4ccc(C)cc4)c32)c1 -23.1%
COc1cccc(CNC(=O)CCn2c(=O)c3cccn3c3cccnc32)c1OC -5.32%
CCOC(=O)c1ccccc1NC(=O)c1ccc2c(Cl)c3c(nc2c1)CCC3 15.5%
CCOc1ccc(CNC(=O)C2CCN(S(=O)(=O)c3ccc4c(ccn4C)c3)CC2)cc1 -24.8%
Cc1nn(CC(=O)NCC(C)c2ccccc2)c(=O)c2cc3ccccc3n12 (stereo not given) -11.4%
Cc1ccc(-c2noc(-c3ccc(N4CCCCC4C)c([N+](=O)[O-])c3)n2)cc1 (stereo not given) -32.4%
CCCCn1c(=O)c2oc3ccccc3c2n(Cc2cccc(C)c2)c1=O -7.19%
Cc1c(C(=O)Nc2ccc(-c3nc4cc(Cl)ccc4o3)cc2)oc2ccccc12 -6.7%
Cc1ccccc1NC(=O)CSc1cn(CC(=O)N2CCCC2)c2ccccc12 -10%
COc1ccc(N(C)C(=O)c2nc(-c3cccc(F)c3)n3c2CCCCC3)c(OC)c1 -5.95%
CCC12CN3CC(C)(CN(C1)C3c1c[nH]c3ccccc13)C2=O (stereo not given) 4.37%
CC1=C(C(=O)Nc2ccc(C)cc2C)C(c2ccc(O)cc2)n2nnnc2N1 (stereo not given) -25.4%
COc1ccc(/C=C\c2onc(C)c2S(=O)(=O)N2CCC(C(=O)Nc3ccc(C)cc3C)CC2)cc1 -4.36%
CCc1ccc(NC(=O)CSC2=Nc3ccccc3C3=NC(CCC(=O)NCCc4ccccc4)C(=O)N23)cc1 (stereo not given) -48.1%
O=C(Nc1ccc(F)cc1Cl)n1ncc2cc(Cl)ccc21 0%
CCC(=O)N1CCc2cc(S(=O)(=O)NC(CC(C)C)C(=O)Nc3cc(C)ccc3OC)ccc21 (stereo not given) -3.05%
CCCOc1ccc(C(=O)Nc2cccc(NC(=O)c3cccc(Cl)c3)c2)cc1 15.2%
CCS(=O)(=O)c1ncc(N(Cc2ccco2)Cc2sccc2C)c(C(=O)Nc2ccc(C)cc2C)n1 -16.3%
CCCCc1nn2c(=O)cc(COC(=O)c3cccc(OC)c3)nc2s1 -4.02%
COc1ccccc1N(CC(=O)NCCSCc1ccccc1)S(C)(=O)=O -8.74%
COc1ccc(-c2cc(C(F)(F)F)nc(SCC(=O)NCc3ccc(OC)c(OC)c3)n2)cc1 -8.69%
CCc1nnc2c(Nc3cccc(C(C)=O)c3)nc3ccccc3n12 3.73%
CCOc1ccc(C(=O)NCc2ccc3c(c2)CCN3C(=O)c2ccccc2)cc1 -23.7%
COc1ccc(-c2onc(C)c2C)cc1S(=O)(=O)NCc1ccco1 -15.5%
COc1cccc(C(=O)Nc2cccc(OCc3cc(=O)n4cc(C)ccc4n3)c2)c1 0.218%
CCc1ccc(CNC(=O)c2ccc3c(c2)nc2n3CCC(C)C2)cc1 (stereo not given) 9.34%
COc1ccc(C)cc1NC(=O)CN(c1ccccc1)S(=O)(=O)N(C)C 2.96%
CCCCc1nn2c(=O)cc(COC(=O)COc3ccc(C)cc3)nc2s1 14.2%
CCOC(=O)CN1C(=O)c2ccccc2Sc2ncccc21 -10.8%
COc1ccc(NC(=O)CN2C(=O)COc3ccc(S(=O)(=O)Nc4ccccc4)cc32)cc1 -13.8%
CCOC(=O)Oc1ccc(CCNC(=O)[C@H](CCSC)NC(C)=O)cc1OC(=O)OCC -1.61%
COc1ccc(C(=O)NCC(c2ccc(N(C)C)cc2)N2CCCC2)c(OC)c1 (stereo not given) -10.2%
Cc1cccc(-c2nc(CSc3nncn4c3cc3oc(C)cc34)c(C)o2)c1 -7.1%
COc1ccccc1OCC(=O)Nc1nc2c(s1)CC(C)CC2 (stereo not given) -6.69%
CCSc1ncc(Cl)c(C(=O)Nc2c(C(=O)Nc3cccc(C)c3)oc3ccccc23)n1 -2.33%
Cc1ccc2nc(-c3ccc(Cl)cc3)cc(C(=O)OCC(=O)c3ccccc3)c2c1 -18.3%
COc1ccc(NC(=O)c2sc3nc4c(cc3c2N)CN(Cc2ccccc2)CC4)cc1 -1.25%
CCc1ccc(C2Sc3ccccc3NC3=C2C(=O)c2ccccc23)cc1 (stereo not given) -0.692%
COc1ccc(C(=O)NCCc2sc(-c3ccc(F)cc3)nc2C)cc1OC -9.97%
CC1CCC(NC(=O)C2(C)Cc3ccccc3C(=O)N2Cc2ccc(F)cc2)CC1 (stereo not given) -9.81%
CCC(C(=O)NC1CCCCC1)n1c(SCc2ccc(F)cc2)nc2ccncc21 (stereo not given) -17.8%
CCC(Cn1nnc2ccccc2c1=O)NC(=O)Nc1ccc(C)cc1C (stereo not given) -15.2%
CC(=O)c1cccc(Nc2ccc3cc(S(=O)(=O)N4CCC(C)CC4)ccc3n2)c1 -37.4%
O=C(COc1ccccc1-c1nnc(-c2ccccc2)o1)Nc1ccc(Br)cc1F -17.1%
CCCNC(=O)CCNS(=O)(=O)c1ccc2c(c1)c(=O)n(C)c(=O)n2C -2.27%
CC(=O)c1ccc(NS(=O)(=O)c2cc(-c3cc(C)no3)ccc2C)cc1 -38.1%
CCC(=O)N1CCc2cc(S(=O)(=O)NCCC(=O)Nc3ccc(C)cc3)ccc21 10.4%
CC(C)c1ccc(-c2nnc3n(CCc4ccccc4)c(=O)c4ccccc4n23)cc1 -58.3%
Cc1cccc(NCc2nc3ccccc3n2CCOc2ccccc2C)c1 -5.62%
COc1cc(OC)c(NC(=O)CCn2cnc3onc(-c4ccc(F)cc4)c3c2=O)cc1Cl -26.4%
CCOc1ccc(NC(=O)N(Cc2c[nH]c3ccccc23)C2CCCCC2)cc1 27.4%
Cc1oc(-c2cccc(Cl)c2)nc1CN1CCC(C(=O)NCCCN2CCN(c3cccc(Cl)c3)CC2)CC1 -16%
Nc1cc(=O)nc(SCC(=O)Nc2ccc(F)cc2)n1-c1ccc(Cl)cc1 -13%
Cc1ccc(CNCc2c(C(=O)O)n(Cc3ccccc3C)c3cc(C)ccc23)cc1 -10.5%
CCC[C@@H]1C[C@@H](C(=O)N[C@@H]([C@H]2O[C@H](SC)[C@H](O)[C@@H](O)[C@H]2O)[C@@H](C)O)N(C)C1
CCCCNC(=O)c1[nH]c2ccccc2c1Sc1ccc(C)cc1 3.44%
CCOc1ccccc1C(=O)NCc1ccc2c(c1)CCN2C(C)=O -4.85%
Cc1ccc(C2c3[nH]c4ccccc4c3CCN2C(=O)Nc2ccc(C)c(C)c2)cc1 (stereo not given) -28.2%
CC(=O)c1cccc(NC(=O)c2nc(-c3ccc(C)cc3)n3c2CCCCC3)c1 -46.4%
Cc1cccc(NC(=O)C2CCCN(S(=O)(=O)c3cccc4nonc34)C2)c1 (stereo not given) 1.81%
O=C(NCCc1ccc(Cl)cc1)c1ccc(CSCc2ccccc2Cl)o1 -18.7%
Cc1ccc(NC(=O)C(=O)NCc2ccc(Cl)cc2)cc1 5.74%
CCOC(=O)C(C)Sc1nnc2ccc3ccccc3n12 (stereo not given) 23.2%
COc1ccc(C2(CNC(=O)C(=O)Nc3cccc(C(F)(F)F)c3)CCCC2)cc1OC -20.3%
COc1cc(CNCc2c(C(=O)O)c(C)n(Cc3cccc(Cl)c3)c2C)cc(OC)c1OC -13.3%
CCc1ccc2nc(N3CCC(C(=O)O)CC3)sc2c1 -75%
Cc1c(Cl)cccc1-n1c(CCC(=O)O)ccc1-c1cccs1 -8.06%
CCSc1nc2n(n1)C(c1ccc(CC)cc1)C(C(=O)Nc1ccccc1OC)=C(C)N2 (stereo not given) -2.88%
CCC(C(=O)N1CCN(c2cc(Cl)ccc2C)CC1)n1nc(C)n2c(cc3occc32)c1=O (stereo not given) -52.6%
COc1ccc(Br)cc1CNC(=O)C(C)n1nc(C)n2c(cc3occc32)c1=O (stereo not given) -17.3%
CCc1cccc(NC(=O)CN2C(=O)CCc3cc(S(=O)(=O)N4CCOCC4)ccc32)c1 -18.1%
Cc1ccc2oc(C(=O)Nc3nnc(CC(C)C)s3)cc(=O)c2c1 3.38% [at 11.5 µM, percent change from vehicle, -100% = no light]
CN1CCCN=C1/C=C/c1cccs1 -8.24%
CCN(CC)c1cc(C)nc2nc(-c3ccc(C)cc3)nn12 -6%
Cc1ccc(CN2CCSc3ccc(C(=O)Nc4ccc(F)cc4F)cc32)cc1 23.9%
Cc1cc2c(=O)c(C(=O)c3ccncc3)cn(CC(=O)Nc3cccc(C)c3C)c2cc1C -3.73%
Cc1oc(-c2ccc(C(=O)NCc3ccc(N(C)C)cc3)cc2)nc1COc1ccccc1 -5.81%
CC(NC(=O)CN(C)S(=O)(=O)c1ccc2c(c1)c(=O)n(C)c(=O)n2C)c1ccccc1 (stereo not given) -14%
Cn1cc(S(=O)(=O)N2CCCCC2)cc1C(=O)N1CCN(c2ccc(F)cc2)CC1 -20.7%
Cc1cc(=O)n(CC(=O)NCCC(C)C)c2c1c(C)nn2C -7.46%
Cc1ccc2c(c1)c(=O)c(C(=O)c1ccncc1)cn2CC(=O)Nc1c(C)cccc1C -1.21%
CCc1ccc(NC(=O)CSc2nccn2C2CCCC2)cc1 -1.92%
Cc1ccc(C)c(S(=O)(=O)c2cnc(SCC(=O)Nc3ccc(F)cc3F)[nH]c2=O)c1 -3.58%
